Each block holds one binder with its values, some of them ahead of it.
Tests used:
[1] = target: T1, heregulin (HRG) (UniProt Q02297-6 177-241, limits assumed, 125I label in Example 4); assay: 125I-HRG binding with BS3 cross-linking, SDS-PAGE, film
T1 construct: also called HRG1β1
T1 sequence (looked up): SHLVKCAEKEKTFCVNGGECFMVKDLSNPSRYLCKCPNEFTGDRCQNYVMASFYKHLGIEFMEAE

[2] = target: T1, heregulin (HRG); assay: 125I-HRG cross-linking normalised by anti-HER3 Western blot densitometry
[3] = target: T1, heregulin (HRG); assay: NRG1β1 binding capacity against RB200h and RB220h
[4] = target: T2, NRG1 (UniProt Q02297-6 177-241, limits assumed); assay: cell-based or functional assay
T2 sequence (looked up): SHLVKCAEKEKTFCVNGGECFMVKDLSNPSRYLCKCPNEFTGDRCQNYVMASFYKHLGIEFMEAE

binding result [1]: binds
B1: HER4-650/Fc (Fc fusion)
chain: QSVCAGTENKLSSLSDLEQQYRALRKYYENCEVVMGNLEITSIEHNRDLSFLRSVREVTGYVLVALNQFRYLPLENLRIIRGTKLYEDRYALAIFLNYRKDGNFGLQELGLKNLTEILNGGVYVDQNKFLCYADTIHWQDIVRNPWPSNLTLVSTNGSSGCGRCHKSCTGRCWGPTENHCQTLTRTVCAEQCDGRCYGPYVSDCCHRECAGGCSGPKDTDCFACMNFNDSGACVTQCPQTFVYNPTTFQLEHNFNAKYTYGAFCVKKCPHNFVVDSSSCVRACPSSKMEVEENGIKMCKPCTDICPKACDGIGTGSLMSAQTVDSSNIDKFINCTKINGNLIFLVTAIHGDPYNAIEAIDPEKLNVFRTVREITGFLNIQSWPPNMTDFSVFSNLVTIGGRVLYSGLSLLILKQQGITSLQFQSLKEISAGNIYITDNSNLCYYHTINWTTLFSTINQRIVIRDNRKAENCTAEGMVCNHLCSSDGCWGPGPDQCLSCRRFSRGRICIESCNLYDGEFREFENGSICVECDPQCEKMEDGLLTCHGPGPDNCTKCSHFKDGPNCVEKCPDGLQGANSFIFKYADPDRECHPCHPNCTQGCNGPTSHDCIYYPWTGHSTLPQHARTGGGGG[letters of human IgG1 Fc with Q311P (EU numbers) not shown]
notes: Fc-mediated homodimer, tested as conditioned medium; also called HFD400; HDD400

binding result [2]: binds
B2: HFD310 (HER3-500/Fc) (Fc fusion)
chain: SEVGNSQAVCPGTLNGLSVTGDAENQYQTLYKLYERCEVVMGNLEIVLTGHNADLSFLQWIREVTGYVLVAMNEFSTLPLPNLRVVRGTQVYDGKFAIFVMLNYNTNSSHALRQLRLTQLTEILSGGVYIEKNDKLCHMDTIDWRDIVRDRDAEIVVKDNGRSCPPCHEVCKGRCWGPGSEDCQTLTKTICAPQCNGHCFGPNPNQCCHDECAGGCSGPQDTDCFACRHFNDSGACVPRCPQPLVYNKLTFQLEPNPHTKYQYGGVCVASCPHNFVVDQTSCVRACPPDKMEVDKNGLKMCEPCGGLCPKACEGTGSGSRFQTVDSSNIDGFVNCTKILGNLDFLITGLNGDPWHKIPALDPEKLNVFRTVREITGYLNIQSWPPHMHNFSVFSNLTTIGGRSLYNRGFSLLIMKNLNVTSLGFRSLKEISAGRIYISANRQLCYHHSLNWTKVLRGPTEERLDIKHNRPRRDCVAEGKVCDPLCSSGGCWGPGPGQCLSGGGGG[letters of human IgG1 Fc not shown]
notes: Fc-mediated homodimer; also called HER3-501/Fc; HF310-Fc

binding activity relative to the heterodimers [3]: 30%
Approximate EC50, inhibition of NRG1-β-induced HER3 phosphorylation (MCF7 cells, phosphotyrosine ELISA) [4]: ~45.5 nM
B3: HER3-621/Fc (Fc fusion)
chain: SEVGNSQAVCPGTLNGLSVTGDAENQYQTLYKLYERCEVVMGNLEIVLTGHNADLSFLQWIREVTGYVLVAMNEFSTLPLPNLRVVRGTQVYDGKFAIFVMLNYNTNSSHALRQLRLTQLTEILSGGVYIEENDKLCHMDTIDWRDIVRDRDAEIVVKDNGRSCPPCHEVCKGRCWGPGSEDCQTLTKTICAPQCNGHCFGPNPNQCCHDECAGGCSGPQDTDCFACRHFNDSGACVPRCPQPLVYNKLTFQLEPNPHTKYQYGGVCVASCPHNFVVDQTSCVRACPPDKMEVDKNGLKMCEPCGGLCPKACEGTGSGSRFQTVDSSNIDGFVNCTKILGNLDFLITGLNGDPWHKIPALDPEKLNVFRTVREITGYLNIQSWPPHMHNFSVFSNLTTIGGRSLYNRGFSLLIMKNLNVTSLGFRSLKEISAGRIYISANRQLCYHHSLNWTKVLRGPTEERLDIKHNRPRRDCVAEGKVCDPLCSSGGCWGPGPGQCLSCRNYSRGGVCVTHCNFLNGEPREFAHEAECFSCHPECQPMGGTATCNGSGSDTCAQCAHFRDGPHCVSSCPHGVLGAKGPIYKYPDVQNECRPCHENCTQGCKGPELQDCLGQTLVLIGKTGGGGG[letters of human IgG1 Fc not shown]
notes: Fc-mediated homodimer; also called HFD300; HFD300h
